Our source for the relative growth recovery values is the supplement of paper PMC12340641.

Over roughly 1,000 compounds, “relative growth recovery (pomalidomide 10 uM = 100%, DMSO = 0%)” has its median near -1.6; the highest 2% begin near 21. The list shows a part of the results.

The subject of the test is HEK293FT dCK*-IKZF1. Put plainly: relative growth recovery (pomalidomide 10 uM = 100%, DMSO = 0%); higher = more growth rescue (IKZF1 fusion degradation). The note with it: compound concentration: 5 uM; AraC concentration: 0.3 uM; overnight pretreatment + 4 days AraC. On the procedure: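 Growth recovery screen of the molecular-glue-like (Specs) library. HEK293FT cells expressing a dCK*-IKZF1 fusion (primary) or dCK* alone (counter) were pretreated overnight with compound at 5 uM, then given 0.3 uM AraC for 4 days. Hoechst nuclei were counted by imaging. Primary: normalised to pomalidomide (100%) and DMSO (0%), mean of 2 replicates. Counter: normalised to no-AraC (100%) and AraC+DMSO (0%), single replicate.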
As to `CCCc1cnc(Nc2cccc(C3(C(=O)OC)CCN(C(=O)C4CCCCC4)CC3)n2)s1`, the relative growth recovery is -5.49%. The value for `COC(=O)C1(c2cccc(Nc3ncc(C)s3)n2)CCN(C(=O)C2CCCCC2)CC1` was -8.98%; that for `Cc1cnc(Nc2cccc(C3(C(=O)O)CCN(C(=O)CC(C)(C)C)CC3)n2)s1` was 1.77%.
